# Data taken from PMC7819943, “Rice protein-binding microarrays: a tool to detect cis-acting elements near promoter regions in rice”.
# The other results are listed elsewhere or left out.
# Target: T1, OsWOX13 (Oryza sativa, UniProt Q5QMM3 1-267)
# T1 sequence: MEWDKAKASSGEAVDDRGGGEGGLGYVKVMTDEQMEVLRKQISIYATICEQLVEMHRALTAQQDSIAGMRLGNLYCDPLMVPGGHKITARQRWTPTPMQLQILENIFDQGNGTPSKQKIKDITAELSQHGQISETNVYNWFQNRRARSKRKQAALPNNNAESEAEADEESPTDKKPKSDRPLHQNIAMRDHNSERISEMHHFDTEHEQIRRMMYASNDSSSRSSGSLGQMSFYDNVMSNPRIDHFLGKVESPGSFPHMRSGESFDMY
# Experiment: protein-binding microarray (RPBM); PBS, 2% BSA, 51.3 ng/ul salmon testes DNA, 50 uM zinc acetate, 200 nM TF, 25 C, 1 h; high values mean tight binding
# Details: protein: recombinant; tags: N-terminal polyhistidine and DsRed monomer fusion (pET32a); label: CyDye5-dUTP incorporated in the synthesized complementary strand; 3' TTTTT single-stranded linker to array surface; dsDNA, one strand shown
# Summary of the method: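 Transcription factors were made in E. coli BL21-CodonPlus as N-terminal fusions to a polyhistidine tag and DsRed, then purified on Ni–NTA. After primer extension with Cy5-dUTP and blocking with 2% BSA, a custom Agilent array was exposed for 1 h at 25 °C to 200 nM protein in PBS, 2% BSA, salmon testes DNA and 50 µM zinc acetate. Washed arrays were scanned on an Axon 4000B, and the binding signal is per-feature fluorescence intensity in arbitrary units.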
row,Sequence,binding signal
1,GTGCATAATCTGTAATTAACATTTGTTACATGGACAGCCCCGGAGTCACCTAGTGCAG,15100 fluorescence intensity (a.u.)
2,TTGTAATTAATCATTTTGCAAGATTTGCATGACTAGTAAACGGAGTCACCTAGTGCAG,12000 fluorescence intensity (a.u.)
3,ATTCTTGATTACGAACAATACTAATATTATCATAATAAACCGGAGTCACCTAGTGCAG,5520 fluorescence intensity (a.u.)
4,GCTGAACTAATAATTACCTTTTATGTGGATCTAGTGACAGCGGAGTCACCTAGTGCAG,10900 fluorescence intensity (a.u.)
5,CTAATTATATAAATGAGAGCTAATCCACGAGATGATCTTTCGGAGTCACCTAGTGCAG,3640 fluorescence intensity (a.u.)
6,GATTAGTTATTAGCTTGATTGGGTGCGTGGTCTGCTTCTGCGGAGTCACCTAGTGCAG,27200 fluorescence intensity (a.u.)
7,ACGTACAATTTGCTAAATTTTCACAAGTCCCTCTAGAACTCGGAGTCACCTAGTGCAG,3440 fluorescence intensity (a.u.)
8,TAGTTAATTGTGCCAAACAAAATTCAAAATTAAGACATCTCGGAGTCACCTAGTGCAG,33000 fluorescence intensity (a.u.)
9,CACAATTATGCCAATCAACATCTGGTCTCAAGACGTTCAGCGGAGTCACCTAGTGCAG,35400 fluorescence intensity (a.u.)
10,ATATGTAAATTACTTTTACGCTTTATTGAATTTACTTTTACGGAGTCACCTAGTGCAG,6150 fluorescence intensity (a.u.)
11,GTGATTAGCCCATACTAATTGGGCCATGATGGGATTCTGACGGAGTCACCTAGTGCAG,34600 fluorescence intensity (a.u.)
12,AAGATAAGATTGGGAGCACAACAAACAAAGTTGGGCACATCGGAGTCACCTAGTGCAG,6630 fluorescence intensity (a.u.)
13,AATTTATTAAATTAATTTAGACTTGCGAGAAGAACTTCAGCGGAGTCACCTAGTGCAG,27000 fluorescence intensity (a.u.)
14,ATTGCATCATTTCGATTAGTTAATTTGCAACGATTACGACCGGAGTCACCTAGTGCAG,3340 fluorescence intensity (a.u.)
15,TTCTTTTGCACCGTCCGATATCAATCATGAGGAATGAACCCGGAGTCACCTAGTGCAG,4030 fluorescence intensity (a.u.)
16,GTGACCGGTTTTGATTAGTTAAGGGACGCGGGATATCTGGCGGAGTCACCTAGTGCAG,9410 fluorescence intensity (a.u.)
17,TTGAAATTGGAGATGATGTGACTGAAAAGTTGTGTGTGTACGGAGTCACCTAGTGCAG,21000 fluorescence intensity (a.u.)
18,ACATAGAATCATCTTAATTGTGCGGAAGAAACAAAGCATGCGGAGTCACCTAGTGCAG,3900 fluorescence intensity (a.u.)
19,AGATCGATTGATGATATCTCTCGGTTATGACTTTTAGTAGCGGAGTCACCTAGTGCAG,8770 fluorescence intensity (a.u.)
20,TTCTAATTTTACATTGTCCAAAACAAACGGTAGGGCGCCGCGGAGTCACCTAGTGCAG,7730 fluorescence intensity (a.u.)
21,ATTAATGGCTTTGATGTGTTCTGCGTGTGATAAGATCTAACGGAGTCACCTAGTGCAG,3380 fluorescence intensity (a.u.)
22,GCACTAAATGATTAGATGAAGGACAAGGACTAAGAGGAGGCGGAGTCACCTAGTGCAG,43300 fluorescence intensity (a.u.)
23,CAAAATGGACAAAATATGTCATCTATTAAAATAGGCATAACGGAGTCACCTAGTGCAG,4880 fluorescence intensity (a.u.)
24,TGGTGATTAACTACAACTAATTGTCAATCTAACACTCCCACGGAGTCACCTAGTGCAG,50400 fluorescence intensity (a.u.)
25,TTGTGTAATGATATATCACATATTGATGTATATTACTCCCCGGAGTCACCTAGTGCAG,6370 fluorescence intensity (a.u.)
26,CATTGGAAATTGTTTATATCATTGAGAATAAACAAGGAAGCGGAGTCACCTAGTGCAG,3310 fluorescence intensity (a.u.)
27,CTCCAGTTATCTTTTAATTTTCCGCTGCATTTATGTAAGACGGAGTCACCTAGTGCAG,6990 fluorescence intensity (a.u.)

row,Sequence,binding signal
1,AATACTAATTTGGAATTTTCCATCAATGACGTTACACAAACGGAGTCACCTAGTGCAG,22100 fluorescence intensity (a.u.)
2,CTTGACAGGCACCGTGATACTTGGGTTCTTGATATAACTGCGGAGTCACCTAGTGCAG,34400 fluorescence intensity (a.u.)
3,TCAAATTTTAATGTTTATAAATATTACACATATGTAGTGGCGGAGTCACCTAGTGCAG,9930 fluorescence intensity (a.u.)
4,TGCACAGATCCATGATTGGCTGGTTAAAACTCAAAATCACCGGAGTCACCTAGTGCAG,18300 fluorescence intensity (a.u.)
5,CATGAAATTTGGGTGTTCATTACCATGATTGTGACTTTATCGGAGTCACCTAGTGCAG,5190 fluorescence intensity (a.u.)
6,TTTAATAATTTACGTTTATATACCTGCATTGGACGGATCCCGGAGTCACCTAGTGCAG,22000 fluorescence intensity (a.u.)
7,ATGATGCATGATTGAGTTGTTATCTGAGCACTTAGAGGTGCGGAGTCACCTAGTGCAG,34400 fluorescence intensity (a.u.)
8,GGCTCATTGATTACGGTAAAATAGAGGTATAAAGGTTATACGGAGTCACCTAGTGCAG,19900 fluorescence intensity (a.u.)
9,CCAATGATTGATCGATTTCTCTCCATACGCCGTGTGCCAACGGAGTCACCTAGTGCAG,59700 fluorescence intensity (a.u.)
10,CCGGATGATATATAATTGCACGCATGGCATTTCATGATGCCGGAGTCACCTAGTGCAG,21200 fluorescence intensity (a.u.)
11,TGCCTTTGATTAATGTCATGATGTCACATGCTGAGATTCACGGAGTCACCTAGTGCAG,11900 fluorescence intensity (a.u.)
12,AATAATATCAATGATGGACGTTTGGTAACTAAATGTTAATCGGAGTCACCTAGTGCAG,11300 fluorescence intensity (a.u.)
13,AAACATTTAATTTCTAACACCTAATATGCACAAACACACACGGAGTCACCTAGTGCAG,3920 fluorescence intensity (a.u.)
14,GGTGATTTTATATATATTCACGCATTTCGTGGACCTTCTTCGGAGTCACCTAGTGCAG,7570 fluorescence intensity (a.u.)
15,GATAATTTAATTGTGATGATTTACTCAGCTTGTTTGCAGTCGGAGTCACCTAGTGCAG,47500 fluorescence intensity (a.u.)
16,TTCTCCATTCCAAATTAAATTATGGGATAAACATATCGTACGGAGTCACCTAGTGCAG,8190 fluorescence intensity (a.u.)
17,CAACCAATCAACTTAGGGCATTATTAGCAGTTTAATAGTACGGAGTCACCTAGTGCAG,10900 fluorescence intensity (a.u.)
18,TAAACTTATAATTATAATGTTATAATAATATTTGAAGGCACGGAGTCACCTAGTGCAG,19500 fluorescence intensity (a.u.)
19,TAACAAGATGATTATGCGCGTATGTTTATGAGAGTGAGTGCGGAGTCACCTAGTGCAG,5630 fluorescence intensity (a.u.)
20,ACAAATTAGAAATTTGGAACAAAGGCTAGTCGCTACCTCACGGAGTCACCTAGTGCAG,22100 fluorescence intensity (a.u.)
21,GGATAGATTGTTGTTGTCCCAAACTTGTGGCTCTGTGCTGCGGAGTCACCTAGTGCAG,18300 fluorescence intensity (a.u.)
22,TGTACTGATAGCGTGATTGAATTCATGGCCTCTTTCTGCCCGGAGTCACCTAGTGCAG,44400 fluorescence intensity (a.u.)
23,TCTGCAATTACACGCGTTAAATTTGACACTACTACAATTTCGGAGTCACCTAGTGCAG,22000 fluorescence intensity (a.u.)
24,GTCTACGGGGAATTTAATTGCTTGGTACTACTTACTTGGTCGGAGTCACCTAGTGCAG,4380 fluorescence intensity (a.u.)
25,GAAGCAATCAAGCAGTAGCATCATATTGTCCACATCGTCGCGGAGTCACCTAGTGCAG,4490 fluorescence intensity (a.u.)
26,GAGTTCAGGATCAATCAGTTTGACCAACCAAACAACTTCACGGAGTCACCTAGTGCAG,4980 fluorescence intensity (a.u.)
27,AACCACTCACTAGTGCTAATTGTTTTATTTAACATTGATTCGGAGTCACCTAGTGCAG,6540 fluorescence intensity (a.u.)
